# Results reported in publication PMC7819943, “Rice protein-binding microarrays: a tool to detect cis-acting elements near promoter regions in rice”.
# The other results are listed elsewhere or left out.
# Molecular target: T1, OsWOX13 (Oryza sativa, UniProt Q5QMM3 1-267)
# T1 sequence: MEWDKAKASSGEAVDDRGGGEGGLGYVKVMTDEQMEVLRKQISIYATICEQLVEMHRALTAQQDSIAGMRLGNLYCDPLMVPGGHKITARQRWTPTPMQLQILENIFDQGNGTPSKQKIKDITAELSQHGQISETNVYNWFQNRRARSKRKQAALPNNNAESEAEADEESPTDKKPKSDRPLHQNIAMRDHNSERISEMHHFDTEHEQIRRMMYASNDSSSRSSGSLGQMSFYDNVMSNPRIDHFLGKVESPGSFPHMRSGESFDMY
# Experiment: protein-binding microarray (RPBM); PBS, 2% BSA, 51.3 ng/ul salmon testes DNA, 50 uM zinc acetate, 200 nM TF, 25 C, 1 h; high values mean tight binding
# Conditions: protein: recombinant; tags: N-terminal polyhistidine and DsRed monomer fusion (pET32a); label: CyDye5-dUTP incorporated in the synthesized complementary strand; 3' TTTTT single-stranded linker to array surface; dsDNA, one strand shown
# Summary of the method: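 Transcription factors, each fused N-terminally to a polyhistidine tag and DsRed, were expressed in E. coli BL21-CodonPlus and purified on Ni–NTA. A custom Agilent array was made double-stranded by primer extension with Cy5-dUTP and blocked with 2% BSA. It was incubated with 200 nM protein in PBS, 2% BSA, salmon testes DNA and 50 µM zinc acetate at 25 °C for 1 h, then washed. The binding signal is per-feature fluorescence intensity (arbitrary units) read on an Axon 4000B scanner.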
row,Sequence,binding signal
1,CATAAATGAATAATTAGCAGTACAAATCGAGAACTATATGCGGAGTCACCTAGTGCAG,28400 fluorescence intensity (a.u.)
2,GAATAATTTTGTTTAAGATTTTACCGGAATCAATAAAACCCGGAGTCACCTAGTGCAG,14800 fluorescence intensity (a.u.)
3,TGAGATTCCACCAATTAATCAACAATCCAACAAACCAATCCGGAGTCACCTAGTGCAG,10500 fluorescence intensity (a.u.)
4,GAATCGAAATCAGAGTGGTGTCAATCATGAGGACATGGTACGGAGTCACCTAGTGCAG,3980 fluorescence intensity (a.u.)
5,TCCGATTTATTTGTCAAAATTGAGCGCTGTTTCGTTAGTTCGGAGTCACCTAGTGCAG,6170 fluorescence intensity (a.u.)
6,ATTTAAATCATCATCTATAGTCAATCTAATAGCTCACTCACGGAGTCACCTAGTGCAG,8910 fluorescence intensity (a.u.)
7,ACATGTTTTATCAATTAGTAGTATGGGCATATTACTAGTGCGGAGTCACCTAGTGCAG,17800 fluorescence intensity (a.u.)
8,TGTAATTACAGGTGAAAACAGCCAGAAAGGAAATGAAAGCCGGAGTCACCTAGTGCAG,9010 fluorescence intensity (a.u.)
9,ACCACTAATAATTAATCAGTTCACAGAAATGTTCCAGGAGCGGAGTCACCTAGTGCAG,15400 fluorescence intensity (a.u.)
10,GAAGTCTTGTCGTAATTATGTGATATTTGTTGGCAGGTAACGGAGTCACCTAGTGCAG,4450 fluorescence intensity (a.u.)
11,CTCGATTGCCGATTAATTAGTTGACCTCTTCGCTTATCCTCGGAGTCACCTAGTGCAG,27800 fluorescence intensity (a.u.)
12,TACAAACAGAATGATTTCATAGTAGTAGTGCAACTTCCTTCGGAGTCACCTAGTGCAG,3610 fluorescence intensity (a.u.)
13,TGATTAATTGAGAACCATTATATCATTATCATACAAACTTCGGAGTCACCTAGTGCAG,37800 fluorescence intensity (a.u.)
14,TGCCTCCCTTCCAATCTTGGCTAATCAGCTAATACCAACTCGGAGTCACCTAGTGCAG,3850 fluorescence intensity (a.u.)
15,AACACATGATTAATTAAGTATTAACTATAAAGAACTTGAACGGAGTCACCTAGTGCAG,19100 fluorescence intensity (a.u.)
16,ATTATTTAATTGCTCTTATTTTAATCAGAGAGATCGTTCTCGGAGTCACCTAGTGCAG,24800 fluorescence intensity (a.u.)
17,GCGATGCTCAAGTTGATTTGCTCAATCTCACAAGGAAGCACGGAGTCACCTAGTGCAG,4900 fluorescence intensity (a.u.)
18,AGCCAAATAATTCTCAATCACTCCTCCCCGATCCAATCCACGGAGTCACCTAGTGCAG,10300 fluorescence intensity (a.u.)
19,AGTTGTGGTGATTTAGGACCTAAATGACATATCATGATAACGGAGTCACCTAGTGCAG,15100 fluorescence intensity (a.u.)
20,GACAAATTTAGTATTCTCTGAAATTTCACCACACTTTCCACGGAGTCACCTAGTGCAG,6090 fluorescence intensity (a.u.)
21,TCATTACCTGACTGTAATTACTTTGAGAGCTCACTAGAGACGGAGTCACCTAGTGCAG,11500 fluorescence intensity (a.u.)

row,Sequence,binding signal
1,GTAAATTAATTAATATGGCACCCGTGTTCTGTTTTAGTGACGGAGTCACCTAGTGCAG,27900 fluorescence intensity (a.u.)
2,TACTAATTACTACTAACCGTTAAAAGTAGCCGCCGGTTAACGGAGTCACCTAGTGCAG,17800 fluorescence intensity (a.u.)
3,GCTCCAATTCATCTATAGTCAATCTAATAGCTCATTCATACGGAGTCACCTAGTGCAG,3580 fluorescence intensity (a.u.)
4,ATTTAATTAAGTTTATAAACAAATATAGTAACATTTTCAACGGAGTCACCTAGTGCAG,18700 fluorescence intensity (a.u.)
5,TATATTCAATGTTAAATTTAATTAAACTAATATAGTATTGCGGAGTCACCTAGTGCAG,5860 fluorescence intensity (a.u.)
6,TTTGACAAATTTGACAACTCCTCTAGCTCCCACTGCTACTCGGAGTCACCTAGTGCAG,38200 fluorescence intensity (a.u.)
7,GCTGACAAGCCACAATCACTAGTAAATACGCATTGACGATCGGAGTCACCTAGTGCAG,4720 fluorescence intensity (a.u.)
8,GTAAGCAAATTAACTCAAGAAAACTTTAAAAGGGTTGTTGCGGAGTCACCTAGTGCAG,7820 fluorescence intensity (a.u.)
9,TTGATTGAAGTATAGATGGCCTGGATGGAAGCAAATTTGCCGGAGTCACCTAGTGCAG,37500 fluorescence intensity (a.u.)
10,ACGAATTTTAGATTGAGTTATTTGAGAGCTAAATTTTCAACGGAGTCACCTAGTGCAG,12500 fluorescence intensity (a.u.)
11,ATGTTCAATTTAATTGCTGTTTGTTACCTTTTGCATGGAGCGGAGTCACCTAGTGCAG,18300 fluorescence intensity (a.u.)
12,AGCTGATGACTTTGATGTGCTGATGCTGATGCATACTGCTCGGAGTCACCTAGTGCAG,17100 fluorescence intensity (a.u.)
13,TGTCTGATTTATTACCTTACAAAATGCGACAGCAGTAAATCGGAGTCACCTAGTGCAG,10700 fluorescence intensity (a.u.)
14,AAACAAATTACAGATTCCGTTAGAAAACTACGAGATGAATCGGAGTCACCTAGTGCAG,8040 fluorescence intensity (a.u.)
15,CGTACCAGCTGATTGATGGTGTCACTCACCAAATGTTCTTCGGAGTCACCTAGTGCAG,34300 fluorescence intensity (a.u.)
16,CGATGACAGTTAGATAGGTTATCCCAATTATTATACTGGTCGGAGTCACCTAGTGCAG,15100 fluorescence intensity (a.u.)
17,GAGAATTGCCCCTAAATTTAATGTAAATATCTTGAAGTGTCGGAGTCACCTAGTGCAG,6120 fluorescence intensity (a.u.)
18,TTTGTTCCTTAATTATCTCGCCTCCACTTTAACTGTGGGCCGGAGTCACCTAGTGCAG,9060 fluorescence intensity (a.u.)
19,GAAATTATATGCCTAATTAACTAACTATACTATAAACCTGCGGAGTCACCTAGTGCAG,24200 fluorescence intensity (a.u.)
20,TCTAAATTAAAATAACCTTCACCCGTTGTAACGCGCGAGCCGGAGTCACCTAGTGCAG,12000 fluorescence intensity (a.u.)
21,TTAACAAACGGATGTTTCCATTCCAAAATACACCAACTTTCGGAGTCACCTAGTGCAG,4510 fluorescence intensity (a.u.)
